B1: CPEB3 Ribozyme (parent)
chain: UAACAGGGGGCCACAGCAGAAGCGUUCACGUCGCAGCCCCUGUCAGAUUCUGGUGAAUCUGCGAAUUCUGCUGUAUAUCUC

Read counts are not given, so values of variants with three or more changes are uncertain.

The variants in the data set derive from B1. Description: self-cleavage, relative activity (ratio to wild type); higher = more cleavage; in vitro, sequencing. In a few lines: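 After error-prone PCR and barcoding, CPEB3 ribozyme mutant libraries were transcribed with T7 RNA polymerase at 37°C for 5 hours, then given 15 min with DNase I before an EDTA stop, and they cleaved during both steps. Reverse transcription with template switching preceded Illumina sequencing. Relative activity divides a variant's cleaved/total read fraction by the unmutated ribozyme's. At least 5 reads were required per variant, and three batches were averaged.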
Regarding U26C A35G U41A U74C, the self-cleavage is 0.11.
The value for U26C A35G A45G U72C was 0.77; that for U26A U43A A47G U58C U60G A77G was 0.06; that for U26A U41C U43C U54A U60C U69C was 0.14.
As for U26C A28U G33U U74C, the self-cleavage is 0.25.
The value for U26C A35G U48C was 0.91; that for U26C A28U U49C G55A was 0.06.
The value for U26A U60A G61U was 0.21; that for U26A U43A C44U U60C U74C was 0.42.
The value for U26A U54C C62G C71U U74C U78C was 0.15; that for U26C A28C A35U A57G U67A U72A was 0.06; that for U26A U72C U78C was 0.99.
In the case of U26A U67A U72G U76C U80C, the self-cleavage turned out to be 0.21.
Then U26C A35G C37A U41C U60A U67A U80C, with 0.16; and U26C A28C U41G A45G U60G, with 0.33.
The value for U26A U54A A56U A75G was 0.24.
The value for U26C A35G A45C was 0.4; that for U26C A28U G36C was 0.07.
U26A U54G U69A A75U: the self-cleavage turned out to be 0.14.
For U26C A28G U51A U72C, the self-cleavage was found to be 0.14.
The value for U26A U60A U69C was 0.3; that for U26C A28U U49C U80C was 0.21; that for U26A U41C A64U was 0.17.
The value for U26C A28G C68A was 0.06.
The value for U26C A28U U60C U80A was 0.36; that for U26C A35G U49C U54C U69A C71U was 0.11; that for U26C A28U U41A U67C was 0.08.
For the variant U26C A28G U31A A64G U80C, the self-cleavage was found to be 0.36.
The value for U26A U43C A47U A57G was 0.42; that for U26C A28G A35U U41C U72C was 0.29.
For the variant U26A U51A A64U, the self-cleavage is 0.62.
On to U26C A28U U43C A64G U66C U69C, for which the self-cleavage came to 0.26.
On to U26A U43C U80C, for which the self-cleavage amounted to 0.42.
The value for U26C A28U A35U U54A was 0.2; that for U26A U49G A64U U67A was 0.08; that for U26A U51C U67C was 0.26.
For the variant U26C A28C U31C A64G U72C, the self-cleavage worked out at 0.08.
As to U26A U49C A57C, the self-cleavage was 0.13.
Take U26C A28G A47C U69C A75U: the self-cleavage is 0.04.
The value for U26C A28G U74C was 0.6; that for U26C A28G U66C U76A was 0.16; that for U26C A28U U66C was 0.07.
For U26A U60C A65C, the self-cleavage stood at 0.36.
As to U26A U54A U66C, the self-cleavage amounted to 0.38.
U26A U54C U80A: the self-cleavage was found to be 0.94.
The value for U26C A28C U48C U54C U67C A77G was 0.12.
Then U26C A35G U41A A57U, with 0.1; and U26A U54A A56G, with 0.67.
U26C A28G G52C: the self-cleavage amounted to 0.43.
The value for U26C A28C A35G U58C was 0.17; that for U26C A28U G33A U60G C68U was 0.19; that for U26A U48C U60A was 0.23.
The value for U26A U48C U60C was 0.26; that for U26A U51C C59G A64G U67A was 0.14; that for U26C A35C U54A was 0.22.
As for U26A U43A U54C, the self-cleavage worked out at 0.19.
Turning to U26A U43A U58C U66C G70A, the self-cleavage turned out to be 0.05.
Regarding U26A U58A U60A, the self-cleavage worked out at 0.12.
Then U26C A35G A45C A47U, with 0.15; and U26C A28G U31C G42A A47G A56G, with 0.12.
In the case of U26C A28G A35G C40U, the self-cleavage is 0.19.
The value for U26A U51A U54C U67C was 0.27.
The value for U26C A35G U43C U60C A65G U67C U72A was 0.24; that for U26A U41C A57G U72C was 0.59.
In the case of U26A U60G G70U U78C, the self-cleavage was 0.12.
Take U26C A28U U41C U67C U69A: the self-cleavage is 0.07.
On to U26A U54A A56U U74A, for which the self-cleavage stood at 0.91.
Then U26A U51C U76C, with 0.95; and U26A U74C U78A, with 1.26.
The value for U26C A28G C29A A35G U60C A64G was 0.1; that for U26C A35C A45C was 0.07; that for U26C A35C A45G was 0.15.
U26C A28G U41C U43C A47G: the self-cleavage amounted to 0.36.
On to U26A U41C U60C, for which the self-cleavage came out at 0.27.
Turning to U26C A35G G55A U74C, the self-cleavage was found to be 1.14.
As to U26C A28G G53U U69C, the self-cleavage amounted to 0.13.
Then U26A U49C U51C A56G U72C, with 0.65; and U26A U43A U66A U80A, with 0.1; and U26C A28G U43A, with 0.3.
On to U26C A28G U43C U72A, for which the self-cleavage is 0.3.
For the variant U26A U43A A57U U60A U72A, the self-cleavage turned out to be 0.09.
The value for U26C A28U U60C U72C was 0.11; that for U26C A28G U41A A64U was 0.15.
Regarding U26C A35G U48C A75G, the self-cleavage stood at 0.94.
Take U26C A28G G30A A77U: the self-cleavage came out at 0.2.
The value for U26C A28U A35U C39U was 0.1; that for U26A U49C A64U A65G U69C was 0.08.
The value for U26C A28G A35G U54C U80C was 0.45.
Take U26A U43C U51C: the self-cleavage stood at 0.87.
The value for U26C A28C U43C was 0.24.
The value for U26C A28G A35G A45G U54A U72C C79U was 0.32.
For the variant U26C A28U U74C, the self-cleavage is 0.29.
For U26C A35G G36A, the self-cleavage turned out to be 0.31.
Consider U26C A28G U67A, for which the self-cleavage came out at 0.22.
Then U26A U49A U69A, with 0.16; and U26A U58C U60A U66C, with 0.19; and U26A U43A U67C U69A, with 0.08.
For U26A U69C U78C, the self-cleavage came out at 0.74.
Then U26A U43C A47G U69C U72C, with 0.06.
Then U26C A35G C38A U78C, with 0.15; and U26A U48C U49C U51C A77G, with 0.22.
Then U26C A28U A45G G63U, with 0.13; and U26C A35C U41C A56G, with 0.42.
In the case of U26A U54C A75U C79G, the self-cleavage stood at 1.02.
For the variant U26C A35G U43C U78C, the self-cleavage amounted to 1.28.
The value for U26A U41G G55A was 0.1; that for U26C A28G A35G U41A G55U A65U was 0.11.
As to U26A U43C U66C U72C, the self-cleavage was 0.2.
As to U26C A28U A45G A64U U74C, the self-cleavage came to 0.08.
Take U26C A28U C32U: the self-cleavage is 0.13.
In the case of U26A U76C U78C, the self-cleavage amounted to 0.93.
Turning to U26C A28U C50U, the self-cleavage is 0.11.
The value for U26C A28G U69C U80C was 0.1; that for U26A U49C A57G U58C A64G was 0.11; that for U26A U49C U72C was 0.22.
As for U26C A35G A47G U74A, the self-cleavage worked out at 1.2.
Regarding U26A U60C G63A, the self-cleavage was 0.48.
With U26C A28U G33C G61A, the self-cleavage was 0.12.
The value for U26A U51C A64U U80A was 0.16; that for U26C A28G U49C U51C A56G was 0.22.
On to U26C A28G U41C U72C, for which the self-cleavage was found to be 0.06.
Turning to U26C A28C A35G, the self-cleavage is 0.25.
The value for U26A U43C U66C was 0.17.
Turning to U26A U48C U54C, the self-cleavage amounted to 0.2.
The value for U26C A35G C40U was 0.67.
Take U26A U58C A64G A65U: the self-cleavage worked out at 0.17.
Then U26C A28G A65C, with 0.1.
In the case of U26C A28G U31C U49C, the self-cleavage is 0.22.
With U26C A35G U54C U58C U78C, the self-cleavage amounted to 0.46.
Then U26A U51A A64G U69A, with 0.18.
Then U26A U60G A75U, with 0.35; and U26C A35G A75U, with 1.14.
The value for U26C A28U G63A U76A was 0.33.
Turning to U26C A35C U43C U58C A64U, the self-cleavage stood at 0.34.
The value for U26A U41C U49C A64U A75U was 0.08.
In the case of U26C A28G A35G U49C, the self-cleavage was determined as 0.18.
Then U26C A35G C38U U60C U66C U72A A77G, with 0.34; and U26C A35G U43A U51A, with 0.23.
On to U26C A28G A35G U51A A65G U66C C68G, for which the self-cleavage came to 0.13.
Then U26A U43A U49A, with 0.07; and U26A U51C U54A, with 0.98.
Regarding U26A U41C U43C, the self-cleavage came to 0.13.
Then U26A U54A U72A, with 0.46.
Then U26C A35G C39U U72G U76C, with 1.11; and U26A U72A U78A, with 0.86; and U26C A28G A56U, with 0.
For U26A U72G U78C, the self-cleavage was found to be 0.73.
Then U26A U41G U54A U60A, with 0.11; and U26C A35G U41C A64G A77G, with 0.79; and U26A U51G U60A U72C, with 0.29.
Then U26A U41C U58C U69A, with 0.15; and U26C A28U A45G U54C U67C, with 0.05.
For the variant U26C A35G U48C A77G, the self-cleavage worked out at 0.85.
The value for U26C A35G U43C U72C A77G was 1.19; that for U26C A28U C34A A47G was 0.12.
For U26C A35G U41C U48C U72C U74A, the self-cleavage is 0.46.
Then U26C A35C U48C A65U, with 0.08.
Then U26A U48C U51C U66C, with 0.03.
The value for U26C A28U A65G was 0.15.
Regarding U26A U41C U76C U78C, the self-cleavage was found to be 0.79.
For the variant U26C A28U A35G G36C U43C U72A, the self-cleavage was 0.09.
The value for U26C A28U A47G was 0.15; that for U26C A28G U67C U72C was 0.34; that for U26A U60A C81U was 0.42.
Then U26A U49A U74A U78C, with 0.77; and U26C A28G U51C U72A A75C, with 0.08.
As to U26A U76A U80C, the self-cleavage amounted to 1.06.

The values above are taken from the RNAGym collection of RNA variant scans (doi:10.1093/nar/gkz1192).
